Data published in PubChem BioAssay AID504332 (National Center for Advancing Translational Sciences (NCATS), 2011).
The whole screen tested about 350,000 compounds, of which about 31,000 (8.9%) were called active. The inconclusive results got no clear call from the source; some entries with a clear call stand among them for comparison. Calls follow the shape of the dose curve; as a rule, active = well fitted inhibition curve with a large enough effect; inconclusive = small, poorly fitted or top-dose-only effect; inactive = no such curve, though single readings can be large or run the other way. Potencies beside an inconclusive call are fits to weak or partial responses and may not hold up.

biological target: Histone-lysine N-methyltransferase EHMT2 (Homo sapiens) (UniProt Q96KQ7); assay: qHTS Assay for Inhibitors of Histone Lysine Methyltransferase G9a; conditions: G9a H3K9 monomethylation, AlphaScreen, 2 h; activity, negative = inhibition: at 59 µM (top of the series) unless noted; also: nearly all actives have a fitted effect of over 75% in size
Sequence of UniProt Q96KQ7 (Q96KQ7 whole entry, looked up): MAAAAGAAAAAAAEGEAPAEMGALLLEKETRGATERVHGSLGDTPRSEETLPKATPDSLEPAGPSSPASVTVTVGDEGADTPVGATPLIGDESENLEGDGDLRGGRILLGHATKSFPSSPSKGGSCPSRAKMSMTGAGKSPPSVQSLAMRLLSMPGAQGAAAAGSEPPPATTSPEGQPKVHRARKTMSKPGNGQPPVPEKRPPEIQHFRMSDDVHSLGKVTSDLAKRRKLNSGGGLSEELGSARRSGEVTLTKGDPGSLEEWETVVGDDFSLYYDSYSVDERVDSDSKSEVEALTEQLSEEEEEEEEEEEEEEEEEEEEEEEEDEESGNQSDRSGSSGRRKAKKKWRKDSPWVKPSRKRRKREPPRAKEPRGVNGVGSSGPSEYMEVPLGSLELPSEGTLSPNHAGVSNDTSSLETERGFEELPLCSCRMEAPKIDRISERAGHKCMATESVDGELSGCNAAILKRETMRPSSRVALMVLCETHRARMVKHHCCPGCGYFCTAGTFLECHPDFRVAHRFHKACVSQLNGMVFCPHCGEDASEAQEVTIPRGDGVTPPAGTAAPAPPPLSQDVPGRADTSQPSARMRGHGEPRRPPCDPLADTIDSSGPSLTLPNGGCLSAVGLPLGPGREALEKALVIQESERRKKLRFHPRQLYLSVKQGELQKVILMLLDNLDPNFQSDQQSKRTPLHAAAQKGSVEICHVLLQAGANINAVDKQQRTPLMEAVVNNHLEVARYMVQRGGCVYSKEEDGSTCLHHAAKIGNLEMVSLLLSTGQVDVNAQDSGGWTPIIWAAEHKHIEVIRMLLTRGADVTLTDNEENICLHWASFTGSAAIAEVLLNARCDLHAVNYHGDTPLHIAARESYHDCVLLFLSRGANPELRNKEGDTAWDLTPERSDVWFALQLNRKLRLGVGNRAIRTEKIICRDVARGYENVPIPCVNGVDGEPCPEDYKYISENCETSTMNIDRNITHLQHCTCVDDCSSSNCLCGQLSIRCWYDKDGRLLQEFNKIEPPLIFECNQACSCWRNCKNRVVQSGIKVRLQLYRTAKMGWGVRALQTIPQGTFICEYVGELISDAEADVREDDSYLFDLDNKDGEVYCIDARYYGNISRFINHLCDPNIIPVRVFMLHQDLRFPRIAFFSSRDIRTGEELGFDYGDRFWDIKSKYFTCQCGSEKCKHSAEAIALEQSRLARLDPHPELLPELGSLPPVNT
Summary of the method: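 Readings reflect AlphaScreen signal from monomethyl-H3K9 antibody detection. HMT at 20 nM; substrate b-H3K9 500 nM; cofactor SAM 20 uM; 2 h RT reaction; compounds tested as titrations in qHTS with 15 min preincubation.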
% is scaled to controls: 0 for no effect and ±100 for the full control effect; potency is read from the fitted curve at half-maximal effect; tags tell the direction and shape of the fitted curve.

| SMILES | Potency | activity, negative = inhibition |
| --- | --- | --- |
| CCC1CN(C(=O)Nc2cccc(OC)c2)c2ccccc2O1 (centres undefined) | inactive | – |
| CN(C)CCNc1ncnc2ccccc12 | inconclusive: 2.82 µM [inhibitor, partial curve, poor fit] | – |
| COC(=O)C1=C(C)N(Cc2ccc(OC)cc2)C(=O)/C1=C\c1ccco1 | active: 10 µM | – |
| COC(=O)c1ccccc1N=Nc1c(C)[nH][nH]c1=O | inactive | – |
| COc1ccc(C2CC(O)(c3ccccc3)Oc3cc(OC)c(OC)c(OC)c32)cc1 (centres undefined) | – | inconclusive: -54.1% [inhibitor] |
| O=C(NCc1ccccc1CN1CCCCC1)c1ccccc1N1CCCC1=O | – | inactive: -10.9% [at 2.33 µM] |
| COc1ccc(C(=O)NCCn2ccc3ccccc32)c(OC)c1 | inconclusive: 89.1 µM [inhibitor, single point] | – |
| O=C(CSc1nnc2ccccn12)NCc1cccs1 | inconclusive: 3.16 µM [inhibitor, full curve, poor fit] | – |
| Cc1ccc(NC(=O)Nc2nnc(Cc3ccc([N+](=O)[O-])cc3)s2)cc1C | inconclusive: 89.1 µM [inhibitor, partial curve, poor fit] | – |
| CCOC(=O)c1c(N)sc2c1CCC(C)C2 (centres undefined) | inconclusive: 31.6 µM [inhibitor, single point] | – |
| CCC(C)(C)C1CCc2c(sc(NC(=O)c3cccs3)c2C(N)=O)C1 (centres undefined) | inconclusive: 89.1 µM [inhibitor, partial curve, poor fit] | – |
| CCOc1ccc(C2C(C(=O)Nc3ccccc3OC)=C(C)Nc3c(C(=O)Nc4cccc(C)c4)cnn32)cc1 (centres undefined) | inactive | – |
| CC(C)(Sc1ccc(CCN(CCCCC2CCCCC2)C(=O)NC2CCCCC2)cc1)C(=O)O | active: 79.4 µM | – |
| O=C(COC(=O)c1ccc([N+](=O)[O-])o1)Nc1cccc2ccccc12 | inconclusive: 14.1 µM [inhibitor, partial curve, poor fit] | – |
| Cc1cc(C)c2c(N)c(S(=O)(=O)Cc3ccccc3)sc2n1 | inconclusive: 89.1 µM [inhibitor, single point] | – |
| COc1ccc(NC(=O)COC(=O)CC2CC3CCC2C3)c([N+](=O)[O-])c1 (centres undefined) | inconclusive: 28.2 µM [inhibitor, single point] | – |
| Cc1cccc(C)c1NS(=O)(=O)c1ccc2c(c1)[C@H]1C=CC[C@H]1[C@@H](c1ccc(Cl)cc1)N2 | active: 3.55 µM | – |
| O=C(NCC(=O)N1CCN(C(=O)c2ccco2)CC1)c1ccc(Cl)cc1 | inconclusive: 20 µM [inhibitor, partial curve, poor fit] | – |
| CCOC(=O)N1CCN(c2ccc(C(F)(F)F)cn2)CC1 | inconclusive: 0.447 µM [inhibitor, full curve, poor fit] | – |
